Source: the supplement of paper PMC12217912
Some of the results follow. Sequences were assembled here from the parent chain. Inactive controls read about 0.05.

B1: TEV protease; numbered along this chain (parent)
chain: MGESLFKGPRDYNPISSSICHLTNESDGHTTSLYGIGFGPFIITNKHLFRRNNGTLVVQSLHGVFKVKDTTTLQQHLVDGRDMIIIRMPKDFPPFPQKLKFREPQREERICLVTTNFQTKSMSSMVSDTSCTFPSGDGIFWKHWIQTKDGQCGSPLVSTRDGFIVGIHSASNFTNTNNYFTSVPKNFMELLTNQEAQQWVSGWRLNADSVLWGGHKVFMVKPEEPFQPVKEATQL

Variants of: B1
Assay: raw area under fraction-flipped curve 0-4 h after induction (AUC4h, not background-subtracted), DNA-recorder readout of cleavage of the substrate (dimensionless); higher = more cleavage of the substrate by the protease variant
Conditions: temperature: 34 °C; time window: 0-4 h after rhamnose induction
Experimental: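 In vivo DNA recorder in E. coli TOP10(DE3) ΔrhaA at 34 °C. Each TEVp single-site mutant (parent TEVp 0) is paired with a single-site variant of the 7-mer TEVs (canonical ENLYFQ|S). The substrate sits between flexible linkers in a Bxb1-sfGFP-TEVs-SsrA fusion, so cleavage stabilises Bxb1 and speeds flipping of a recombination array, read by NGS. The value is the raw area under the fraction-flipped curve over 0-4 h after rhamnose induction (AUC4h), with ≥20 reads per time point. It is not background-subtracted; inactive controls average about 0.047.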
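Note: Bxb1 expression induced with 0.2% (w/v) L-rhamnose at OD600 near 0.5, cultures sampled hourly, flipped fraction per protease–substrate barcode pair counted by paired-end Illumina sequencing.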

Variant	area with substrate EALYFQS	area with substrate EDLYFQS	area with substrate EELYFQS	area with substrate EFLYFQS	area with substrate EKLYFQS	area with substrate EQLYFQS	area with substrate ERLYFQS	area with substrate ESLYFQS	area with substrate ETLYFQS	area with substrate EWLYFQS
D91T	0.149	0.11	0.0985	0.112	0.0847	0.0471	0.0899	0.096	0.0985	0.112
D91S	0.124	0.123	–	–	0.137	0.108	–	0.11	–	0.102
R50W	0.138	–	0.145	–	–	–	0.131	0.124	0.161	–
R50N	0.16	–	–	–	–	–	–	–	–	–
L190F	0.0797	–	–	–	0.0879	–	0.0837	0.092	0.0983	–
L190D	0.0944	0.119	0.0829	0.0695	0.0937	0.0842	0.102	–	–	0.085
L190N	0.0986	–	–	–	–	–	–	–	–	–
F218I	0.106	0.112	0.112	–	0.0858	0.0942	0.0879	0.0908	–	–
F65I	0.0832	–	0.0617	–	–	0.123	0.116	0.0977	–	–
N177G	0.0747	–	–	0.0702	0.0392	0.0867	0.0644	–	–	0.0709
V200D	0.102	–	0.0626	–	0.0821	–	–	0.0751	–	–
W141N	0.0598	–	0.0093	–	0.0607	–	–	0.0382	–	–
S209N	0.125	–	–	0.0522	0.0881	–	–	–	–	–
S209E	0.129	–	0.148	–	0.129	–	–	0.109	–	0.115
N193C	0.131	–	–	–	0.108	–	–	–	–	–
N193Y	0.0825	–	–	–	0.083	–	0.0793	0.0781	0.0879	–
N193Q	0.0705	0.136	–	0.078	0.0794	0.0996	0.081	0.0841	0.0999	–
N193K	–	0.108	0.123	–	0.119	0.101	–	–	–	–
V58M	0.154	–	0.115	–	0.104	0.113	–	0.0939	–	0.0887
T181I	0.115	0.0633	–	0.08	0.0487	–	0.0575	0.0634	–	–

Variant	area with substrate EALYFQS	area with substrate EDLYFQS	area with substrate EELYFQS	area with substrate EFLYFQS	area with substrate EKLYFQS	area with substrate EQLYFQS	area with substrate ERLYFQS	area with substrate ESLYFQS	area with substrate ETLYFQS	area with substrate EWLYFQS
W199Y	0.0584	–	–	–	0.0584	–	0.0652	–	0.0829	0.0457
R204D	0.123	–	0.118	–	0.103	0.0929	0.099	0.103	–	0.102
N186F	0.132	–	–	–	–	–	0.119	0.105	–	–
Q59R	0.151	0.136	0.165	–	–	0.127	–	0.115	0.117	0.0931
Q59N	0.0894	–	–	–	–	–	0.107	0.0971	–	–
P9N	0.112	0.127	–	0.0939	0.0994	–	–	0.0972	–	0.104
Q118C	0.115	–	–	–	–	–	–	0.0868	0.127	0.0942
V113Y	0.119	0.134	0.124	–	0.0813	–	0.0774	0.086	–	0.0399
G153F	0.0316	–	0.0523	–	0.0494	–	–	0.0491	–	–
H76F	0.0922	0.122	–	0.106	0.0824	0.0823	0.0672	0.0962	0.0927	0.0782
Q197R	0.115	–	–	–	0.108	0.0898	–	0.0831	–	–
S171I	0.0676	–	–	–	–	–	0.0538	–	–	0.0648
R81A	0.122	–	0.126	–	0.0887	0.112	–	0.0972	–	–
Q227A	0.122	0.114	–	–	–	–	–	–	–	–
N175A	0.0721	0.106	–	–	0.0822	0.0937	0.0698	0.0846	–	0.105
F173T	0.088	0.0993	0.116	–	0.0829	0.0976	0.0834	0.0822	–	–
Q194A	0.178	0.139	0.121	–	–	–	0.117	0.104	–	–
D11T	0.117	0.134	0.112	–	–	0.195	–	–	–	–
K7V	0.0798	0.0578	0.0698	–	–	0.0558	0.0809	0.0726	0.0755	–
K7W	0.112	–	–	–	–	–	0.0837	–	0.114	0.0787

Same assay, conditions: temperature: 34 °C; time window: 0-4 h after rhamnose induction

Variant	area with substrate EGLYFQS	area with substrate EHLYFQS	area with substrate EILYFQS	area with substrate ELLYFQS	area with substrate EMLYFQS	area with substrate EPLYFQS	area with substrate EVLYFQS	area with substrate EYLYFQS	area with substrate ECLYFQS
D91S	0.108	0.117	0.103	0.0837	–	–	–	–	–
R50W	–	–	–	–	0.137	0.155	0.161	–	–
L190F	0.082	–	–	–	0.104	–	–	–	–
L190D	–	0.0766	0.104	–	–	–	0.105	–	–
L190N	–	–	0.0692	–	–	0.0827	–	–	–
F218I	–	0.0789	0.0807	0.0742	–	0.103	–	0.0786	–
F65I	0.0654	0.0693	0.0645	–	0.0966	–	0.0877	–	–
N177G	0.0739	–	0.0611	0.055	0.0682	0.0951	0.0683	–	–
V200D	0.0878	–	–	0.0525	–	0.0604	–	–	–
W141N	–	0.0582	–	–	–	0.0573	–	–	–
S209N	–	–	0.0855	–	–	–	0.065	–	–
S209E	0.0658	–	–	0.111	–	–	0.0984	–	–
N193C	0.104	–	–	–	–	–	–	–	–
N193Y	0.0681	–	0.0841	–	–	–	–	–	–
N193Q	–	–	0.0509	–	–	–	0.0837	–	–
N193K	–	0.0957	0.0955	0.0813	0.105	–	–	0.0554	0.0832
V58M	–	–	–	–	–	–	0.0921	–	–
T181I	0.0676	–	–	–	–	0.0812	–	–	–

Variant	area with substrate EGLYFQS	area with substrate EHLYFQS	area with substrate EILYFQS	area with substrate ELLYFQS	area with substrate EMLYFQS	area with substrate EPLYFQS	area with substrate EVLYFQS	area with substrate EYLYFQS	area with substrate ECLYFQS
W199Y	–	0.0456	0.0768	–	–	–	–	–	–
R204D	–	–	0.0857	–	–	0.0909	0.0885	0.0722	–
N186F	0.0957	–	–	–	–	0.107	0.0896	–	–
Q59R	0.126	–	0.0814	0.0956	–	0.16	0.0935	0.119	–
Q59N	–	–	–	–	0.104	0.121	0.0958	–	–
P9N	0.138	–	–	0.114	–	–	–	–	–
Q118C	–	–	–	0.11	0.117	–	–	–	–
V113Y	0.0893	0.0841	0.0878	–	0.0939	–	0.109	–	–
G153F	0.052	–	0.0465	–	–	0.0633	0.052	–	–
H76F	0.0787	0.0886	0.0683	0.0766	0.12	–	0.0683	–	–
Q197R	–	–	0.0596	–	0.0885	–	–	–	–
R81A	0.12	–	0.0912	–	0.091	0.119	–	0.0963	–
N175A	–	0.0774	0.0641	0.0746	–	0.0676	0.0659	0.0898	–
F173T	0.0645	–	0.1	–	0.0724	0.0991	–	0.144	–
Q194A	–	0.176	0.0943	–	–	–	0.101	–	–
D11T	0.113	–	0.0843	0.0956	–	–	–	–	–
K7V	–	–	0.0607	0.0765	0.0824	0.0684	0.0526	–	–
K7W	–	–	–	–	–	0.137	–	0.0802	–
